Molecular target: T1, recombinantly expressed purified soluble WNV E protein (strain 382-99), truncated form with Myc and His tags (West Nile virus strain 382-99, UniProt Q9Q6P4 291-696)
T1 construct: also called recombinant WNV-E protein; truncated E protein; not shown: Myc tag and His tag from pAdapt.myc.his
T1 sequence: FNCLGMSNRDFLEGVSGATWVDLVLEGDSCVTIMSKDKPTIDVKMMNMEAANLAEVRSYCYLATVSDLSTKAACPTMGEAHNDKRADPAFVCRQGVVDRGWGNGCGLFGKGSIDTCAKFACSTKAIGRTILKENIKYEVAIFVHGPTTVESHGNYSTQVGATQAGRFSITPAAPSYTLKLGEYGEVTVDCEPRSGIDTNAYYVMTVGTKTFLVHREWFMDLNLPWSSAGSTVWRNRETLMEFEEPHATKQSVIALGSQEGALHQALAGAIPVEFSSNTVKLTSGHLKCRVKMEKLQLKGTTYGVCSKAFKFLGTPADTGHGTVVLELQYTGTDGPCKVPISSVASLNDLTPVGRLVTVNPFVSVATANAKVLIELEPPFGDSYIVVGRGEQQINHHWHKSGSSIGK
Assay: phage antibody ELISA on coated recombinant soluble WNV E protein

B1: SC04-274 (scFv)
scFv: QVQLVQSGAEVKKPGESLKISCKGSGYSFTSYWIGWVRQMPGKGLEWMGIIYPGDSDTRYSPSFQGQVTISADRSISTAYLQWSSLKASDTAMYYCARLRGPYYDFWNGYRETHDAFNVWGQGTTVTVSSGTGGSGGTGSGTGGS[gap - about 100 residues]FGGGTKVEIKR
- OD 492nm: 0.496 OD 492nm
